From PMC4336329 (PLoS ONE, 2015) come the findings set out here.

Screen size: about 310,000 compounds; about 14,000 (4.5%) showed an effect of 50% or more. The effect is printed as a negative number. The list shows a part of the results.
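Also: peak tail current of the secondary pulse compared with the same well before compound.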

Chain of human ether-à-go-go-related gene (hERG) potassium channel (Q12809 whole entry, looked up): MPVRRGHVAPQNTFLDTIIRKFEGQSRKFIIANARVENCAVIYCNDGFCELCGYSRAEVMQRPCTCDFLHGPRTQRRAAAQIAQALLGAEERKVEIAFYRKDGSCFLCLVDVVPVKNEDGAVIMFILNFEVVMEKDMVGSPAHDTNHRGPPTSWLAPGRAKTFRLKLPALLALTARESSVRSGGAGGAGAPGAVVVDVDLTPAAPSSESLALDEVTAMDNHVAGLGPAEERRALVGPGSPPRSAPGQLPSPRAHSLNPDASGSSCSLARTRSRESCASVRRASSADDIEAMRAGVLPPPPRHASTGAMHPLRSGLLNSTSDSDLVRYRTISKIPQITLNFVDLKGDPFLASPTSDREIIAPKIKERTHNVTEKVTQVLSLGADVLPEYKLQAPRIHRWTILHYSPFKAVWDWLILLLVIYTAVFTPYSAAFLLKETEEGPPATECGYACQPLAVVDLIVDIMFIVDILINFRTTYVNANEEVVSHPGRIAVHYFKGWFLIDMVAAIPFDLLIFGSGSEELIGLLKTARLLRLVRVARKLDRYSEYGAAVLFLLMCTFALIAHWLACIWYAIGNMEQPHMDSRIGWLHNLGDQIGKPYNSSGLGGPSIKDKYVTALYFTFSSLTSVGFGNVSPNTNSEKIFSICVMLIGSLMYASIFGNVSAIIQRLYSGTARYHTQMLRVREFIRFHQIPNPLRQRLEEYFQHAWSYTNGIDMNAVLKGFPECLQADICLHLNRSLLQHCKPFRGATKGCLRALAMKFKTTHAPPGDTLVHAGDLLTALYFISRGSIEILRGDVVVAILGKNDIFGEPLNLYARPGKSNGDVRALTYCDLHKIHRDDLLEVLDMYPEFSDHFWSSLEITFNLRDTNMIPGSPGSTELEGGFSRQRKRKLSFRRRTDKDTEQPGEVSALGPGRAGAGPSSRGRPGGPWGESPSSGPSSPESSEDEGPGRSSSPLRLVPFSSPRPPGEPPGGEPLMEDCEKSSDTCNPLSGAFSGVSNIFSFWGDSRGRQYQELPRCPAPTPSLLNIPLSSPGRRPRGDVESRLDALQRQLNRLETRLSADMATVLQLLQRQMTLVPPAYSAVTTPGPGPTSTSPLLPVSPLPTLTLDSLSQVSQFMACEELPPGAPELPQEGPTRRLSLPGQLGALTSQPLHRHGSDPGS

The assay has as its target human ether-à-go-go-related gene (hERG) potassium channel (human, UniProt Q12809). Put plainly: primary screen, population patch clamp on CHO cells stably expressing hERG.
Take `Cc1ccc(C(=O)c2c3ccc(C(F)(F)F)cc3[n+]([O-])n2CCC(N)=O)cc1`: the “hERG current change (%, negative = inhibition) at 10uM” value was -66.2%.

Turning to `O=C(COc1ccccc1)NCCc1nc2ccccc2[nH]1`, the “hERG current change (%, negative = inhibition) at 10uM” value was -6.21%.

Consider `CC1CCN(C(=O)c2[nH]cnc2C(=O)N[C@@H](CCCCNC(=O)OC(C)(C)C)C(=O)OC(C)(C)C)CC1`, for which the “hERG current change (%, negative = inhibition) at 10uM” value was -10.4%.

Turning to `CCCN(CCC)CCNC(=O)CCC(=O)Nc1ccc2nc(N3CCN(C)CC3)cc(C)c2c1`, the “hERG current change (%, negative = inhibition) at 10uM” value came to 17.7%.

For the compound `COc1ccc2[n-]c(S(=O)Cc3ncc(C)c(OC)c3C)nc2c1.COc1ccc2[n-]c(S(=O)Cc3ncc(C)c(OC)c3C)nc2c1.[Mg+2]` (stereo not drawn) [49681830], the “hERG current change (%, negative = inhibition) at 10uM” value is given as -0.361%.

Regarding `CCC(C)(C)NC(=O)C(c1cccnc1)N(C(=O)c1csnn1)c1ccc(C)cc1` (stereo not drawn), the “hERG current change (%, negative = inhibition) at 10uM” value is 10.6%.

Turning to `COc1ccc(CSC2=NCCN2)cc1Cl.Cl`, the “hERG current change (%, negative = inhibition) at 10uM” value is -18.2%.

As to `CC(C)c1ccc(NC(=O)c2cc(Br)ccc2Br)cc1`, the “hERG current change (%, negative = inhibition) at 10uM” value was 10.6%.

In the case of `O=c1[nH]c(Cc2cccs2)nc2scc(-c3ccc(Cl)cc3)c12`, the “hERG current change (%, negative = inhibition) at 10uM” value is -8.42%.

For `Cc1ccc(CN2CCC(NC(=O)c3ccccc3)CC2)cc1`, the “hERG current change (%, negative = inhibition) at 10uM” value is given as -75%.

On to `Cc1ccc(C(=O)OCC(=O)N2C(C)CCCC2C)s1` (stereo not drawn), for which the “hERG current change (%, negative = inhibition) at 10uM” value is reported as -2.22%.

Regarding `COc1ccc(-c2cc3ccccc3oc2=O)cc1NC(=O)c1cccnc1`, the “hERG current change (%, negative = inhibition) at 10uM” value is -38.4%.

For the compound `CCN(CC(=O)N1CCCCC1)S(=O)(=O)c1ccccc1`, the “hERG current change (%, negative = inhibition) at 10uM” value was -7.12%.

On to `Cc1cc(C)cc(NC(=O)N(C)Cc2ccccc2)c1`, for which the “hERG current change (%, negative = inhibition) at 10uM” value was determined as 12.3%.

For `CCOC(=O)N1CCN(C(=O)CN(C2CCCCC2)S(C)(=O)=O)CC1`, the “hERG current change (%, negative = inhibition) at 10uM” value was 12.2%.

Consider `Cc1ccc(C(=O)CCC(=O)N2CCN(C(=O)c3ccco3)CC2)cc1`, for which the “hERG current change (%, negative = inhibition) at 10uM” value was -56.2%.

`CCOc1ccc(NC(=O)C(=O)N/N=C\c2ccc(CNS(=O)(=O)c3ccccc3)o2)cc1`: the “hERG current change (%, negative = inhibition) at 10uM” value was determined as 13.6%.

As to `N/C(=N\OC(=O)Cc1cccs1)c1cccc([N+](=O)[O-])c1`, the “hERG current change (%, negative = inhibition) at 10uM” value is -32.7%.

As for `O=C(NNC1=C(C(=O)C(F)(F)F)CCC1)c1cccnc1`, the “hERG current change (%, negative = inhibition) at 10uM” value is on record as 4.19%.

With `CCOc1ccc(CC(=O)Nc2ccc(-c3ccc4nnc(C)n4n3)cc2)cc1`, the “hERG current change (%, negative = inhibition) at 10uM” value is -40.4%.

`CCOC(=O)C1CCN(S(=O)(=O)c2ccc(-c3nc4ccccc4s3)s2)CC1`: the “hERG current change (%, negative = inhibition) at 10uM” value is given as 6.37%.

With `Cc1ccc(NC(=O)c2ccc(Cl)nc2)cc1`, the “hERG current change (%, negative = inhibition) at 10uM” value is on record as 18.1%.

As to `O=C(Cc1nc2ccccc2s1)c1ccc(O)cc1O`, the “hERG current change (%, negative = inhibition) at 10uM” value is -2.86%.

With `CCOc1ccc(/C=C\C(C)=N\O)cc1`, the “hERG current change (%, negative = inhibition) at 10uM” value was found to be 0.628%.

As for `O=C(NNc1cc(N2CCOCC2)nc(N2CCOCC2)n1)C12CC3CC(CC(C3)C1)C2`, the “hERG current change (%, negative = inhibition) at 10uM” value is given as -2.08%.

As to `CCS(=O)(=O)N1CCN(c2ccc([N+](=O)[O-])c(NCc3cccnc3)c2)CC1`, the “hERG current change (%, negative = inhibition) at 10uM” value is reported as -49.1%.

Turning to `Cc1nc2[nH]c(=S)n(C)c(=O)c2nc1C`, the “hERG current change (%, negative = inhibition) at 10uM” value was 16.8%.

Take `CCc1nnc(NC(=O)C2CCCN(S(=O)(=O)c3ccccc3)C2)s1` (stereo not drawn): the “hERG current change (%, negative = inhibition) at 10uM” value amounted to 5.15%.

Regarding `CCc1cc2cc3c(cc2nc1SCC(=O)Nc1nnc(C)s1)OCCO3`, the “hERG current change (%, negative = inhibition) at 10uM” value is 10.4%.

Take `CCc1ccccc1NC(=O)NNC(=O)c1ccc2ccccc2c1O`: the “hERG current change (%, negative = inhibition) at 10uM” value is 18.2%.

Regarding `O=C(CC(Sc1ccccc1)c1cccs1)c1ccco1` (stereo not drawn), the “hERG current change (%, negative = inhibition) at 10uM” value is given as 9.65%.

As for `COC(=O)c1cccnc1-n1c(=O)c2cccnc2n(Cc2cccc([N+](=O)[O-])c2)c1=O`, the “hERG current change (%, negative = inhibition) at 10uM” value was -25.1%.

As to `COCCCNc1nc(N)c([N+](=O)[O-])c(NC2CCCCC2)n1`, the “hERG current change (%, negative = inhibition) at 10uM” value is listed as 9.79%.

For the compound `CCn1c(COc2ccc3c(c2)OCO3)nnc1SCC(=O)c1ccccc1`, the “hERG current change (%, negative = inhibition) at 10uM” value was 9.87%.

Consider `COc1ccc(S(=O)(=O)N2CCc3ccccc32)cc1C(=O)N(CC(C)C)C1CCS(=O)(=O)C1` (stereo not drawn), for which the “hERG current change (%, negative = inhibition) at 10uM” value is reported as -48.1%.

As for `C=CCN(c1ccccc1)S(=O)(=O)c1ccc2c(c1)oc(=O)n2C`, the “hERG current change (%, negative = inhibition) at 10uM” value amounted to 15.1%.

For the compound `COC(=O)[C@@]1(Cc2ccc(OC)cc2)[C@H]2c3cc(C(=O)N(C)C)n(CCSCCO)c3C[C@H]2CN1C(=O)c1ccccc1`, the “hERG current change (%, negative = inhibition) at 10uM” value is on record as -18.4%.

Consider `Cc1ccc(NS(=O)(=O)c2cccc([N+](=O)[O-])c2)nc1`, for which the “hERG current change (%, negative = inhibition) at 10uM” value is listed as 12%.

For the compound `O=Cc1ccccc1OS(=O)(=O)c1ccccc1`, the “hERG current change (%, negative = inhibition) at 10uM” value was -28.3%.

In the case of `Cc1cc(C(=O)Nc2cc(C(F)(F)F)ccc2N2CCOCC2)no1`, the “hERG current change (%, negative = inhibition) at 10uM” value amounted to 5.97%.

Turning to `CN(C)c1ccc(P(=O)(OCc2ccccc2)C(O)c2ccc(Br)cc2)cc1` (stereo not drawn), the “hERG current change (%, negative = inhibition) at 10uM” value is on record as 17.4%.

For `COC(=O)Nc1sc2c(c1C(N)=O)CCCCCC2`, the “hERG current change (%, negative = inhibition) at 10uM” value is recorded as 11.9%.

As to `COc1ccc(S(=O)(=O)N(CCc2ccccc2)CC(=O)NCCCO)cc1`, the “hERG current change (%, negative = inhibition) at 10uM” value was -36%.

For `CN(Cc1cccnc1)C(=O)c1cc(COc2ccc3ncccc3c2)on1`, the “hERG current change (%, negative = inhibition) at 10uM” value was found to be 0.745%.

Take `O=C(COC(=O)c1cc(-c2cccs2)nn1-c1ccccc1)Nc1ccc(F)c([N+](=O)[O-])c1`: the “hERG current change (%, negative = inhibition) at 10uM” value stood at 7.9%.

For `N#CCCN(C(=O)COC(=O)C1CCN(S(=O)(=O)c2ccc3c(c2)OCCO3)CC1)c1ccccc1`, the “hERG current change (%, negative = inhibition) at 10uM” value is on record as -0.2%.

In the case of `CCCc1cc(=O)oc2cc(OCC(=O)Nc3ccc(S(N)(=O)=O)cc3)ccc12`, the “hERG current change (%, negative = inhibition) at 10uM” value came to 23.1%.

Take `NC(=O)C1CCN(C(=O)CSc2ncccn2)CC1`: the “hERG current change (%, negative = inhibition) at 10uM” value was determined as 12.7%.

For the compound `COC(=O)[C@H](C)NC(=O)Nc1ccc(OC)c(OC)c1`, the “hERG current change (%, negative = inhibition) at 10uM” value is reported as 3.73%.

Take `O=C(NC(=O)c1c(F)cccc1F)O/N=C1\CCCc2occc21`: the “hERG current change (%, negative = inhibition) at 10uM” value was 17.9%.

Take `COc1ccc2c(c1)[nH]c1c(=O)n(CCN3CCCC3)cnc12`: the “hERG current change (%, negative = inhibition) at 10uM” value is -46.3%.

Regarding `CCN(CC)CCNC(=O)c1sc2ncn(CC(=O)Nc3ccc(C)c(Cl)c3)c(=O)c2c1C`, the “hERG current change (%, negative = inhibition) at 10uM” value is listed as -51.8%.

`CN(CCC#N)C(=O)COC(=O)/C=C/c1cccs1`: the “hERG current change (%, negative = inhibition) at 10uM” value worked out at 6.84%.

With `CCC(=O)OC1(C)C(=O)C=C2C=C(CCCCNC(=O)OC(C)(C)C)OC=C2C1=O` (stereo not drawn), the “hERG current change (%, negative = inhibition) at 10uM” value was determined as 6.58%.
